Source: PMC5700166
The list shows a part of the results, in another mix than the full data. The list includes weakly bound sequences.

Biological target: T1, GST-Co-NF-kB (UniProt F1ARL5)
T1 sequence: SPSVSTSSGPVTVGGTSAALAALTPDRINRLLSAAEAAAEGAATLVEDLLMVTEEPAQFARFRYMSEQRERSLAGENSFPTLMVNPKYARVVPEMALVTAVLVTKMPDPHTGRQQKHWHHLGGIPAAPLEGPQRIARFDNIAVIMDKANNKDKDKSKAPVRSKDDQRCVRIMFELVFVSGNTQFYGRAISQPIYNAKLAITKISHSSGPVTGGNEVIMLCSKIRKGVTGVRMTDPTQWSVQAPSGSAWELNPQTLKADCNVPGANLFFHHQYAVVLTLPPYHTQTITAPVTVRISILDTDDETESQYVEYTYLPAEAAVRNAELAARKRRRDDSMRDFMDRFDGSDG
Test: protein-binding microarray (PBM)
Details: PBM: ~300 nM protein, 6 mM HEPES pH 7.8, 80 mM KCl, 0.5 mM EDTA, 0.5 mM EGTA, 6% glycerol, 35 ng/ul poly-dIdC, 1% milk, 1 h, room temperature; Ap Aiptasia and Nv Nematostella (sea anemones) / Co Capsaspora / Aq Amphimedon (sponge) / Dm Drosophila / Hu human; RHD is the Rel homology domain; high values mean tight binding; most listed sequences are background and not binding sites; double strand, one strand shown

How did the binding signal turn out when “CCGATTAACATCAGGGGGTGCACTGATGTTAATCGGGTCTTGATTCGCTTGACGCTGCTG” was run?
The binding signal was 2.55 z-score.

How did the binding signal turn out when “CCGATTAACATCAGGGAAACCACTGATGTTAATCGGGTCTTGATTCGCTTGACGCTGCTG” was run?
The binding signal was 3.12 z-score.

With “CCGATTAACATCACTACTTTCCCTGATGTTAATCGGGTCTTGATTCGCTTGACGCTGCTG” as the sequence, how does the binding signal read?
Its binding signal is 3.41 z-score.

How did the binding signal turn out when “CCGATTAACATCAGGGGGTTATATGATGTTAATCGGGTCTTGATTCGCTTGACGCTGCTG” was run?
Its binding signal is 3.18 z-score.

Which binding signal does the source give for “CCGATTAACATCAAAGTCCCCCGTGATGTTAATCGGGTCTTGATTCGCTTGACGCTGCTG” here?
Its binding signal is 6.7 z-score.

Which binding signal does the source give for “CCGATTAACATCAAATTCCCGGGTGATGTTAATCGGGTCTTGATTCGCTTGACGCTGCTG” here?
Its binding signal is 4.43 z-score.

“CCGATTAACATCAATTTTTCCCGTGATGTTAATCGGGTCTTGATTCGCTTGACGCTGCTG” was tested. Which binding signal did it give?
The binding signal was 6.5 z-score.

Which binding signal does the source give for “CCGATTAACATCAGGGGGGTAGATGATGTTAATCGGGTCTTGATTCGCTTGACGCTGCTG” here?
The binding signal was 5.47 z-score.

How did the binding signal turn out when “CCGATTAACATCACGGAATACCCTGATGTTAATCGGGTCTTGATTCGCTTGACGCTGCTG” was run?
Its binding signal is 1.67 z-score.

With “CCGATTAACATCAAATTCCCAATTGATGTTAATCGGGTCTTGATTCGCTTGACGCTGCTG” as the sequence, how does the binding signal read?
The binding signal was 2.62 z-score.

Which binding signal does the source give for “CCGATTAACATCAACCTCCCCCCTGATGTTAATCGGGTCTTGATTCGCTTGACGCTGCTG” here?
Its binding signal is 6.38 z-score.

How did the binding signal turn out when “CCGATTAACATCAAACTTCCCCTTGATGTTAATCGGGTCTTGATTCGCTTGACGCTGCTG” was run?
Its binding signal is 5.46 z-score.

Which binding signal does the source give for “CCGATTAACATCAGGAATACCCCTGATGTTAATCGGGTCTTGATTCGCTTGACGCTGCTG” here?
The binding signal was 4.14 z-score.

Which binding signal does the source give for “CCGATTAACATCAGGGGGAGAAATGATGTTAATCGGGTCTTGATTCGCTTGACGCTGCTG” here?
Its binding signal is 10.7 z-score.

Which binding signal does the source give for “CCGATTAACATCAGGCCTCCCCCTGATGTTAATCGGGTCTTGATTCGCTTGACGCTGCTG” here?
The binding signal was 4.14 z-score.

How did the binding signal turn out when “CCGATTAACATCAGGGAGTTCCATGATGTTAATCGGGTCTTGATTCGCTTGACGCTGCTG” was run?
The binding signal was 0.63 z-score.

With “CCGATTAACATCAAGGGGGGGTATGATGTTAATCGGGTCTTGATTCGCTTGACGCTGCTG” as the sequence, how does the binding signal read?
The binding signal was 5.09 z-score.

“CCGATTAACATCACGGGAACACCTGATGTTAATCGGGTCTTGATTCGCTTGACGCTGCTG” was tested. Which binding signal did it give?
The binding signal was 1.95 z-score.

“CCGATTAACATCAGGGGCTTTACTGATGTTAATCGGGTCTTGATTCGCTTGACGCTGCTG” was tested. Which binding signal did it give?
The binding signal was 0.497 z-score.

For “CCGATTAACATCAGGGGATCTACTGATGTTAATCGGGTCTTGATTCGCTTGACGCTGCTG”, which binding signal is on record?
The binding signal was 1.96 z-score.

With “CCGATTAACATCAATTCCCAAGGTGATGTTAATCGGGTCTTGATTCGCTTGACGCTGCTG” as the sequence, how does the binding signal read?
The binding signal was 2.02 z-score.

How did the binding signal turn out when “CCGATTAACATCACGCAACCCCCTGATGTTAATCGGGTCTTGATTCGCTTGACGCTGCTG” was run?
The binding signal was 2 z-score.

“CCGATTAACATCAGGGCATACCCTGATGTTAATCGGGTCTTGATTCGCTTGACGCTGCTG” was tested. Which binding signal did it give?
The binding signal was 0.562 z-score.

With “CCGATTAACATCAGGGTATTTTATGATGTTAATCGGGTCTTGATTCGCTTGACGCTGCTG” as the sequence, how does the binding signal read?
The binding signal was 3.22 z-score.

“CCGATTAACATCAGGGAAATTCATGATGTTAATCGGGTCTTGATTCGCTTGACGCTGCTG” was tested. Which binding signal did it give?
Its binding signal is 4.15 z-score.

Which binding signal does the source give for “CCGATTAACATCACATTTCCCCCTGATGTTAATCGGGTCTTGATTCGCTTGACGCTGCTG” here?
Its binding signal is 9.84 z-score.

With “CCGATTAACATCACTCTTTCCCCTGATGTTAATCGGGTCTTGATTCGCTTGACGCTGCTG” as the sequence, how does the binding signal read?
Its binding signal is 6.1 z-score.

With “CCGATTAACATCAGGGACTTTACTGATGTTAATCGGGTCTTGATTCGCTTGACGCTGCTG” as the sequence, how does the binding signal read?
Its binding signal is 0.561 z-score.

Which binding signal does the source give for “CCGATTAACATCAGACTTCCCCATGATGTTAATCGGGTCTTGATTCGCTTGACGCTGCTG” here?
The binding signal was 4.24 z-score.

Which binding signal does the source give for “CCGATTAACATCAGAAGATTCCCTGATGTTAATCGGGTCTTGATTCGCTTGACGCTGCTG” here?
The binding signal was 3.43 z-score.

“CCGATTAACATCAAGGGAATACCTGATGTTAATCGGGTCTTGATTCGCTTGACGCTGCTG” was tested. Which binding signal did it give?
The binding signal was 2.25 z-score.

“CCGATTAACATCAACCACCCCCCTGATGTTAATCGGGTCTTGATTCGCTTGACGCTGCTG” was tested. Which binding signal did it give?
The binding signal was 4.22 z-score.

“CCGATTAACATCAGAATTGCCCCTGATGTTAATCGGGTCTTGATTCGCTTGACGCTGCTG” was tested. Which binding signal did it give?
The binding signal was 1.95 z-score.

For “CCGATTAACATCAGAAAGCCCCCTGATGTTAATCGGGTCTTGATTCGCTTGACGCTGCTG”, which binding signal is on record?
Its binding signal is 2.16 z-score.

How did the binding signal turn out when “CCGATTAACATCAGGGATTGCCCTGATGTTAATCGGGTCTTGATTCGCTTGACGCTGCTG” was run?
The binding signal was 0.903 z-score.

With “CCGATTAACATCAGAAGACCCCCTGATGTTAATCGGGTCTTGATTCGCTTGACGCTGCTG” as the sequence, how does the binding signal read?
The binding signal was 1.79 z-score.

For “CCGATTAACATCAGGGGGTTTGATGATGTTAATCGGGTCTTGATTCGCTTGACGCTGCTG”, which binding signal is on record?
Its binding signal is 1.61 z-score.

With “CCGATTAACATCAGGGGATCTTATGATGTTAATCGGGTCTTGATTCGCTTGACGCTGCTG” as the sequence, how does the binding signal read?
The binding signal was 3.1 z-score.

Which binding signal does the source give for “CCGATTAACATCAGGAGACCCCCTGATGTTAATCGGGTCTTGATTCGCTTGACGCTGCTG” here?
The binding signal was 1.61 z-score.

How did the binding signal turn out when “CCGATTAACATCAAAAAACTACCTGATGTTAATCGGGTCTTGATTCGCTTGACGCTGCTG” was run?
Its binding signal is 0.454 z-score.
